The values that follow come from PubChem BioAssay AID488969 (Vanderbilt High Throughput Screening Facility, 2010).

The structures appear in SMILES notation. In all, about 110,000 compounds were measured (“z-score”: median about -0.1, highest 2% from about 2 on). The list shows a part of the results.

The experiment concerns the target Metabotropic glutamate receptor 8 (Rattus norvegicus) (UniProt P70579). As to the kind of experiment: rat mGluR8 modulators via GIRK flux, primary screen, cell-based, thallium flux, HTS (AID 488969). Particulars: HEK293 rat mGluR8, GIRK (G protein-gated inwardly rectifying potassium channel) thallium flux, FluoZin2; at 10 µM; stronger effect = higher value; submaximal glutamate (EC20) added with thallium.
Chain of UniProt P70579 (P70579 whole entry, looked up): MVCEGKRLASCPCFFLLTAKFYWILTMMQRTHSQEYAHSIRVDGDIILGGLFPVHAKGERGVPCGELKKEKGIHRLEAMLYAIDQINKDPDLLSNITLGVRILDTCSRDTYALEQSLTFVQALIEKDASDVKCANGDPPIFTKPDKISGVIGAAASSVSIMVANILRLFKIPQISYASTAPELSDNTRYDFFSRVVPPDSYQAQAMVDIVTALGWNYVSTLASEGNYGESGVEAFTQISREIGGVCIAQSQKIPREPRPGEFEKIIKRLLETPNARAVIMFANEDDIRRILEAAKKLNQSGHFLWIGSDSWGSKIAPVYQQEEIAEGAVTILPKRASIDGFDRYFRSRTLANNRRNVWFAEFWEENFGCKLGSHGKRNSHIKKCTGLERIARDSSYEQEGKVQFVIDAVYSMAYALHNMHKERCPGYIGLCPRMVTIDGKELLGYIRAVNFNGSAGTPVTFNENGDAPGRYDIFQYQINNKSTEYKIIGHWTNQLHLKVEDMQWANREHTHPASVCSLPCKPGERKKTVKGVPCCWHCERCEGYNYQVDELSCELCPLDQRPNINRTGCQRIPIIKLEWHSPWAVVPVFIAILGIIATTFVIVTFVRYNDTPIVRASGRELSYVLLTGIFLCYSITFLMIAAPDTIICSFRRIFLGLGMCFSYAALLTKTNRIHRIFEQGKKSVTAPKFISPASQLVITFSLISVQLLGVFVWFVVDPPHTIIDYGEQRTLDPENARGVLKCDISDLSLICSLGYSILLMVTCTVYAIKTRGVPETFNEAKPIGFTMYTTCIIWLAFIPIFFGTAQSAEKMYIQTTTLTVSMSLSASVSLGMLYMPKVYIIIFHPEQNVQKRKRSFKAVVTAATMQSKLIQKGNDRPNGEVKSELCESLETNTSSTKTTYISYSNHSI
Molecule `O=c1cc(-c2ccccc2)nc2nc[nH]n12` yielded a z-score of -0.502.
To `CCN(CC)S(=O)(=O)c1ccc(NC(=O)C(C)N(c2ccc(OC)cc2)S(C)(=O)=O)cc1` (configuration not stated) belongs -0.182; to `CC(C)CCSc1nc(N)c(C#N)cc1C#N`, -0.591.
As for `COc1ccc(Cn2c(SCc3ccc(C)cc3)nc3cc(OC)c(OC)cc3c2=N)cc1Cl`, the figure is -0.112.
`N/N=c1\sc2ccccc2n1-c1ccccc1` yielded a z-score of 0.118.
To `O=C(Nc1cccnc1)c1cccnc1Cl` belongs 0.0677; to `Cc1ccc(-c2ccccc2NC(=O)CCl)o1`, -0.0953.
To `O=C(OCCNc1ncc(C(F)(F)F)cc1Cl)c1ccc(S(=O)(=O)N2CCOCC2)cc1` belongs 0.258; to `N#CCCN1CCN(C(=S)c2ccc(-c3ccc(Cl)cc3)o2)CC1`, 0.291.
To `Cc1ccc(-c2n[nH]c(=S)n2/N=C/c2cccs2)cc1` belongs 2.22; to `O=[N+]([O-])c1ccc(Cl)cc1Sc1nc2ccccc2o1`, -0.37; to `CS/C(N)=N/N=C/c1ccc([N+](=O)[O-])cc1`, -0.414.
For the molecule `CCOc1nc(OCC)nc(N2CCC(C)CC2)n1`, the z-score is -0.578.
As for `C/C(=N\NC(=O)CN1CCOCC1)C(C)(C)C`, the z-score is 0.0872.
As for `COc1ccc(Cc2nnc(NC(=O)Cn3cnc4c3c(=O)n(C)c(=O)n4C)s2)cc1`, the figure is -0.441; as for `COc1ccc(-c2nc(NC(=O)c3n[nH]c(=O)c4ccccc34)sc2C)cc1`, -0.088.
The molecule `CCc1ccc(OCC(=O)N/N=C(\C)c2ccc(-n3ccnc3)cc2)cc1` yielded a z-score of -0.476.
To `CSc1ccc(-c2c(C#N)c(N)nc3c2c(C)nn3-c2ccccc2)cc1` belongs 0.109.
To `Cc1nn(-c2cc(C)c3ccccc3n2)c2c1CCC2` belongs 0.557.
As for `COc1cccc(/C=N/NC(=O)CCc2c(C)n[nH]c2C)c1`, the figure is -0.423.
`O=C(CSc1nnc(-c2ccc(Cl)cc2Cl)n1C1CCCCC1)N1CCCC1` returned a z-score of -0.796.
In the case of `CCC(=O)c1ccc(OCCN2CCOCC2)cc1`, the z-score came to 0.0439.
`CC1CCCC(C)N1Cc1cn2ccccc2n1` (configuration not stated) registered a z-score of 0.482.
As for `COc1ccc(S(=O)(=O)N2CCCC(C(=O)Nc3cccc(C(C)=O)c3)C2)cc1` (configuration not stated), the figure is -0.823; as for `CC(C)(C)OC(=O)N1CCC[C@H]1c1nnc(SCc2ccccc2F)o1`, -0.183; as for `CCN(CC)S(=O)(=O)c1cccc(C(=O)OCC(=O)c2ccc3c(c2)NC(=O)CO3)c1`, -0.586.
As for `Clc1ccc(-c2csc(N3CCN(c4ccccc4)CC3)n2)cc1`, the figure is 0.593; as for `O=C(COc1ccccc1Br)NCc1ccccn1`, -0.326.
To `CCOC(=O)N1CCN(C(=O)c2ccccc2NC(=O)c2ccc(C(C)(C)C)cc2)CC1` belongs -0.448.
In turn, `O=C(O)c1ccc(NS(=O)(=O)c2cc(Cl)ccc2Cl)cc1` displayed a z-score of -0.151.
Molecule `CC(C)(C)NCCCCOc1ccc(F)cc1` returned a z-score of 2.98.
On to `CC(=O)Nc1ccc(S(=O)(=O)NC2=C(N3CCN(Cc4ccccc4)CC3)C(=O)c3ccccc3C2=O)cc1`, for which the z-score is -0.0575.
